These results are taken from publication PMC4242493.

The other results are listed elsewhere or left out. The list includes weakly bound sequences.

The assay concerns the target MaxL homodimer (UniProt P61244). As to the kind of experiment: universal protein-binding microarray (PBM). The following applies: PBS-based mixture, 10 nM His-tagged protein dimer, 2% milk, 200 ng/uL BSA, 50 ng/uL salmon testes DNA, 0.02% TX-100; detection with Alexa 488 anti-His …; high values mean tight binding; most listed sequences are background and not binding sites; double strand, one strand shown.
UniProt P61244, sequence (P61244 whole entry): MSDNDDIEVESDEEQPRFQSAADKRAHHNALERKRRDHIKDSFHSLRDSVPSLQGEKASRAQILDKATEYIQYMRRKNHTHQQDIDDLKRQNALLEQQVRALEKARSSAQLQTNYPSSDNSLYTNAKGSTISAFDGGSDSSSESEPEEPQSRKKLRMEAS
For CGGTTTAG, the binding signal (normalized occupancy) was 0.0694.

In the case of CTTAGTAA, the binding signal (normalized occupancy) was 0.0712.

For GGAAGTCA, the binding signal (normalized occupancy) stood at 0.0734.

As to CTCGTGCC, the binding signal (normalized occupancy) turned out to be 0.0909.

On to AGAATCTA, for which the binding signal (normalized occupancy) stood at 0.0779.

With CGGTACGC, the binding signal (normalized occupancy) is 0.0666.

Consider GATATACA, for which the binding signal (normalized occupancy) was determined as 0.0827.

With GAGGATTA, the binding signal (normalized occupancy) came to 0.0775.

AGGTGCAG: the binding signal (normalized occupancy) was found to be 0.0801.

As to AACTTCCA, the binding signal (normalized occupancy) was 0.0677.

Regarding CAAGCGTG, the binding signal (normalized occupancy) turned out to be 0.104.

On to ATGAGTGG, for which the binding signal (normalized occupancy) came to 0.079.

Turning to CGTGTAAC, the binding signal (normalized occupancy) worked out at 0.0871.

In the case of CGGCTTTA, the binding signal (normalized occupancy) was determined as 0.0697.

Consider GAATGTGA, for which the binding signal (normalized occupancy) was found to be 0.0817.

In the case of ACGCGGCG, the binding signal (normalized occupancy) worked out at 0.082.

As to ATCGGTGC, the binding signal (normalized occupancy) turned out to be 0.0757.

For the sequence CGGAAAGA, the binding signal (normalized occupancy) is 0.0742.

As for GTCGAAAC, the binding signal (normalized occupancy) was determined as 0.0714.

In the case of AGGGAGGA, the binding signal (normalized occupancy) was 0.0742.

Consider AATCTGTA, for which the binding signal (normalized occupancy) came to 0.0795.

With CTGTTGCC, the binding signal (normalized occupancy) is 0.068.

In the case of TAAGCGGA, the binding signal (normalized occupancy) came to 0.0688.

As for CCTCCCAA, the binding signal (normalized occupancy) was 0.0795.

Turning to ATATCCAG, the binding signal (normalized occupancy) was 0.078.

For GGAAAACA, the binding signal (normalized occupancy) was 0.0754.

Turning to AAGCTTTA, the binding signal (normalized occupancy) came to 0.0725.

Take ATTCTGTC: the binding signal (normalized occupancy) amounted to 0.0792.

On to AAGGGGAT, for which the binding signal (normalized occupancy) was 0.0775.

Consider ACTGAACC, for which the binding signal (normalized occupancy) came to 0.0727.

As to CAAGTGCG, the binding signal (normalized occupancy) is 0.073.

As to CTTGCTGC, the binding signal (normalized occupancy) worked out at 0.0689.

In the case of CTTAAGAA, the binding signal (normalized occupancy) was 0.0729.

As to AGAGATAT, the binding signal (normalized occupancy) amounted to 0.083.

With CACAGTAG, the binding signal (normalized occupancy) was determined as 0.0759.

For the sequence AGGTCAGG, the binding signal (normalized occupancy) amounted to 0.0741.

In the case of CGTCCGGA, the binding signal (normalized occupancy) is 0.0722.

Take GAAGCTGA: the binding signal (normalized occupancy) was 0.0667.

On to AACGATCA, for which the binding signal (normalized occupancy) worked out at 0.0757.

With AACTGTGT, the binding signal (normalized occupancy) was found to be 0.0728.

As to AATCGCCC, the binding signal (normalized occupancy) is 0.0731.

Take AGAGGGTA: the binding signal (normalized occupancy) is 0.0784.

As to GCAGTACC, the binding signal (normalized occupancy) came to 0.0752.

As for GCGGAACA, the binding signal (normalized occupancy) turned out to be 0.0734.

On to CGTCGAAC, for which the binding signal (normalized occupancy) worked out at 0.0719.

Take ATCGTCAT: the binding signal (normalized occupancy) was 0.08.

CACGAGGA: the binding signal (normalized occupancy) amounted to 0.137.

Consider TAATGGTA, for which the binding signal (normalized occupancy) was 0.0765.

On to GCACTAAC, for which the binding signal (normalized occupancy) was 0.0688.

On to CGCTTACG, for which the binding signal (normalized occupancy) is 0.072.

Regarding AGTAGGAA, the binding signal (normalized occupancy) is 0.0707.

As for TAACAGAA, the binding signal (normalized occupancy) came to 0.0762.

Consider AGTTGTCC, for which the binding signal (normalized occupancy) came to 0.0735.

Turning to CTCCTCAC, the binding signal (normalized occupancy) came out at 0.0758.

For the sequence GCGTCAAC, the binding signal (normalized occupancy) is 0.0752.

On to GGTGTTGA, for which the binding signal (normalized occupancy) stood at 0.082.

On to CGCCAGCG, for which the binding signal (normalized occupancy) turned out to be 0.0648.

Consider GTGCGCGA, for which the binding signal (normalized occupancy) was 0.0808.

For ATGGTAGA, the binding signal (normalized occupancy) came out at 0.0801.

With ACGCATCG, the binding signal (normalized occupancy) was determined as 0.0806.

For the sequence ACTATTAT, the binding signal (normalized occupancy) was found to be 0.0787.

On to GACATTTA, for which the binding signal (normalized occupancy) was determined as 0.0853.

For ATATGGAG, the binding signal (normalized occupancy) is 0.0902.

As for GTGGGAAA, the binding signal (normalized occupancy) stood at 0.0821.

As for CAGTAAGA, the binding signal (normalized occupancy) stood at 0.074.

Turning to CCCGAGTC, the binding signal (normalized occupancy) was 0.0738.

For ACATTTAT, the binding signal (normalized occupancy) stood at 0.0867.

Regarding ATATCCGA, the binding signal (normalized occupancy) amounted to 0.0821.

With CTTAAGGC, the binding signal (normalized occupancy) worked out at 0.0688.

Turning to AAACAAAG, the binding signal (normalized occupancy) was determined as 0.0763.

Consider ATAACCTG, for which the binding signal (normalized occupancy) turned out to be 0.0814.

Consider GTGAGCAC, for which the binding signal (normalized occupancy) was 0.0807.

On to CGCCATAC, for which the binding signal (normalized occupancy) amounted to 0.0884.

Regarding AGACCGAG, the binding signal (normalized occupancy) was found to be 0.068.

Consider CGTACGTC, for which the binding signal (normalized occupancy) was found to be 0.0762.

As for ATGCTGAA, the binding signal (normalized occupancy) turned out to be 0.0799.

For the sequence GACTGCTA, the binding signal (normalized occupancy) is 0.0712.

In the case of CAGTGGAA, the binding signal (normalized occupancy) was 0.0706.

For GAAGCACA, the binding signal (normalized occupancy) came out at 0.0773.

Regarding CAGCATAG, the binding signal (normalized occupancy) is 0.0739.

Consider GGAGATAC, for which the binding signal (normalized occupancy) came out at 0.0701.

Turning to CGGGACAG, the binding signal (normalized occupancy) is 0.0676.

Turning to ATGTTTGG, the binding signal (normalized occupancy) was determined as 0.0806.

On to TGCGAACA, for which the binding signal (normalized occupancy) came to 0.0776.

Turning to GGCTTGTA, the binding signal (normalized occupancy) is 0.0849.

Regarding AGTGCGCA, the binding signal (normalized occupancy) was found to be 0.076.

As to AGCCGTTC, the binding signal (normalized occupancy) was 0.066.

With AAGCCACA, the binding signal (normalized occupancy) was 0.0844.

Regarding CATAATGG, the binding signal (normalized occupancy) stood at 0.0823.

As for AACAGTCT, the binding signal (normalized occupancy) is 0.0721.

Take GCCTATTA: the binding signal (normalized occupancy) came out at 0.0793.

As to GGGTGGAA, the binding signal (normalized occupancy) turned out to be 0.0852.

As for AGCGTCGC, the binding signal (normalized occupancy) was 0.0721.

For the sequence AGAGAGTA, the binding signal (normalized occupancy) was found to be 0.0748.

Take ACGACTGG: the binding signal (normalized occupancy) stood at 0.0674.

CCACCCAA: the binding signal (normalized occupancy) is 0.0803.

In the case of AAATTTCT, the binding signal (normalized occupancy) was found to be 0.0704.

With CCCTTTAG, the binding signal (normalized occupancy) was determined as 0.0687.

CGCGCGGA: the binding signal (normalized occupancy) worked out at 0.0836.

Regarding AAAGGAAA, the binding signal (normalized occupancy) was determined as 0.0777.

Consider AGGTACGA, for which the binding signal (normalized occupancy) stood at 0.0738.

Regarding CATAATCC, the binding signal (normalized occupancy) is 0.0816.

Consider ATACCCAG, for which the binding signal (normalized occupancy) is 0.0752.

With ACGGCACG, the binding signal (normalized occupancy) came to 0.0814.

In the case of ACATGCAT, the binding signal (normalized occupancy) was 0.105.

ACGGCAAC: the binding signal (normalized occupancy) came out at 0.0772.

Take ATCCCCAA: the binding signal (normalized occupancy) is 0.0794.

For CCTTCGAC, the binding signal (normalized occupancy) is 0.0701.

Take ACAGAAGG: the binding signal (normalized occupancy) amounted to 0.0726.

For ATAATCAG, the binding signal (normalized occupancy) was found to be 0.0771.

Regarding ACTTAGTC, the binding signal (normalized occupancy) came to 0.0745.

For CGAACTCG, the binding signal (normalized occupancy) came to 0.073.

As for ATACATAT, the binding signal (normalized occupancy) turned out to be 0.0896.

On to AGTGGCGC, for which the binding signal (normalized occupancy) was found to be 0.0706.

For the sequence AGGTGGTG, the binding signal (normalized occupancy) was 0.0873.

AACTATAG: the binding signal (normalized occupancy) stood at 0.0779.

As for GTGGCCAA, the binding signal (normalized occupancy) was determined as 0.076.

Take CAGATTAA: the binding signal (normalized occupancy) is 0.0745.

Turning to AACCACCG, the binding signal (normalized occupancy) came out at 0.0742.

Turning to CTGAAGGC, the binding signal (normalized occupancy) is 0.0663.

As to CCTGAACG, the binding signal (normalized occupancy) was 0.0747.

Regarding TATGGGCA, the binding signal (normalized occupancy) amounted to 0.0802.

Turning to CGGGAGGC, the binding signal (normalized occupancy) was found to be 0.0684.

For TAAGGGAA, the binding signal (normalized occupancy) was determined as 0.0759.

As for CTAGTGTC, the binding signal (normalized occupancy) worked out at 0.0704.

With TAGCTGAA, the binding signal (normalized occupancy) turned out to be 0.0722.

In the case of ACGACGTG, the binding signal (normalized occupancy) was 0.0963.

For CAGATCTA, the binding signal (normalized occupancy) amounted to 0.0775.

Regarding ACTGACAA, the binding signal (normalized occupancy) was found to be 0.0748.

Take CAAGATAC: the binding signal (normalized occupancy) amounted to 0.0771.

On to GTCGGTTA, for which the binding signal (normalized occupancy) stood at 0.0702.

Turning to GATTGTGA, the binding signal (normalized occupancy) turned out to be 0.0758.

Consider AGCAGGAG, for which the binding signal (normalized occupancy) amounted to 0.0736.

Regarding ATCGACCG, the binding signal (normalized occupancy) amounted to 0.0683.

With ATATCCTC, the binding signal (normalized occupancy) worked out at 0.0839.

Regarding GTGGCAAC, the binding signal (normalized occupancy) stood at 0.0755.

On to ACTAACCG, for which the binding signal (normalized occupancy) came out at 0.0725.

In the case of ACGTGTAG, the binding signal (normalized occupancy) came out at 0.103.

GGCTAAAA: the binding signal (normalized occupancy) came out at 0.0665.

In the case of AGTGCTAG, the binding signal (normalized occupancy) was 0.0731.

For the sequence GCAACCTA, the binding signal (normalized occupancy) stood at 0.078.

TATGGAGA: the binding signal (normalized occupancy) was 0.0866.

Take AAGAAGTA: the binding signal (normalized occupancy) is 0.0727.

Take ATTGCCAC: the binding signal (normalized occupancy) came to 0.0774.

CGAACCCC: the binding signal (normalized occupancy) was 0.077.

As to ATCAAGGA, the binding signal (normalized occupancy) was found to be 0.0765.

In the case of AGCGGCAA, the binding signal (normalized occupancy) was 0.0701.

In the case of CACCATTC, the binding signal (normalized occupancy) was 0.0799.

As to GTAAAATA, the binding signal (normalized occupancy) is 0.0792.

For TCAATCGA, the binding signal (normalized occupancy) stood at 0.0766.

As for GAGACAAA, the binding signal (normalized occupancy) came out at 0.0718.

Turning to GAAGTCCA, the binding signal (normalized occupancy) amounted to 0.0692.

AGAAGCAG: the binding signal (normalized occupancy) worked out at 0.0737.

On to AAAAGCAG, for which the binding signal (normalized occupancy) came out at 0.0682.

Regarding ACGACACC, the binding signal (normalized occupancy) was found to be 0.0753.

Consider ATAGTATA, for which the binding signal (normalized occupancy) amounted to 0.0859.

AGTGAGCA: the binding signal (normalized occupancy) amounted to 0.0794.

For the sequence GTTGAGGA, the binding signal (normalized occupancy) came to 0.0716.

For the sequence AACTGCCT, the binding signal (normalized occupancy) stood at 0.0759.

In the case of AGGACGTC, the binding signal (normalized occupancy) came to 0.0754.

Consider CAGCGGAG, for which the binding signal (normalized occupancy) is 0.0713.

As for AAATCTCC, the binding signal (normalized occupancy) stood at 0.0696.

Consider CCCTTTAC, for which the binding signal (normalized occupancy) is 0.077.

In the case of TCAAGCAA, the binding signal (normalized occupancy) worked out at 0.0732.

With CAAATCAG, the binding signal (normalized occupancy) was 0.083.

Consider ATACGTTA, for which the binding signal (normalized occupancy) was 0.0826.

Turning to AAGTGCGA, the binding signal (normalized occupancy) is 0.0687.

For the sequence GAACATTA, the binding signal (normalized occupancy) is 0.0812.

On to GATCAATC, for which the binding signal (normalized occupancy) amounted to 0.0738.

With ATTGGAGA, the binding signal (normalized occupancy) amounted to 0.0755.

On to CCTCATGA, for which the binding signal (normalized occupancy) came to 0.0951.

In the case of ACACGAGG, the binding signal (normalized occupancy) is 0.144.
